# Measured values taken from patent US20170368169A1 (MARENGO THERAPEUTICS, published 2017).
# B1: Multispecific molecule 24 (other)
# heavy 1: QVQLVQSGAEVKKPGASVKVSCKTSRYTFTEYTIHWVRQAPGQRLEWIGGINPNNGIPNYNQKFKGRVTITVDTSASTAYMELSSLRSEDTAVYYCARRRIAYGYDEGHAMDYWGQGTLVTVSSASTKGPSVFPLAPSSKSTSGGTAALGCLVKDYFPEPVTVSWNSGALTSGVHTFPAVLQSSGLYSLSSVVTVPSSSLGTQTYICNVNHKPSNTKVDKRV[human IgG1 Fc with changes skipped]
# light: DIVMTQSPDSLAVSLGERATINCKSSQSLLYSRNQKNYLAWYQQKPGQPPKLLIFWASTRESGVPDRFSGSGFGTDFTLTISSLQAEDVAVYYCQQYFSYPLTFGQGTKVEIKRTVAAPSVFIFPPSDEQLKSGTASVVCLLNNFYPREAKVQWKVDNALQSGNSQESVTEQDSKDSTYSLSSTLTLSKADYEKHKVYACEVTHQGLSSPVTKSFNRGEC
# heavy 2: QVQLVQSGAEVKKPGASVKVSCKTSRYTFTEYTIHWVRQAPGQRLEWIGGINPNNGIPNYNQKFKGRVTITVDTSASTAYMELSSLRSEDTAVYYCARRRIAYGYDEGHAMDYWGQGTLVTVSSASTKGPSVFPLAPSSKSTSGGTAALGCLVKDYFPEPVTVSWNSGALTSGVHTFPAVLQSSGLYSLSSVVTVPSSSLGTQTYICNVNHKPSNTKVDKRVEPKSCDKTHTCPPCPAPELLGGPSVFLFPPKPKDTLMISRTPEVTCVVVDVSHEDPEVKFNWYVDGVEVHNAKTKPREEQYNSTYRVVSVLTVLHQDWLNGKEYKCKVSNKALPAPIEKTISKAKGQPREPQVCTLPPSREEMTKNQVSLSCAVKGFYPSDIAVEWESNGQPENNYKTTPPVLDSDGSFFLVSKLTVDKSRWQQGNVFSCSVMHEALHNHYTQKSLSLSPGKGGGGSGGGGSGGGGSFRGPLLPNRPFTTVWNANTQWCLERHGVDVDVSVFDVVANPGQTFRGPDMTIFYSSQLGTYPYYTPTGEPVFGGLPQNASLIAHLARTFQDILAAIPAPDFSGLAVIDWEAWRPRWAFNWDTKDIYRQRSRALVQAQHPDWPAPQVEAVAQDQFQGAARAWMAGTLQLGRALRPRGLWGFYGFPDCYNYDFLSPNYTGQCPSGIRAQNDQLGWLWGQSRALYPSIYMPAVLEGTGKSQMYVQHRVAEAFRVAVAAGDPNLPVLPYVQIFYDTTNHFLPLDELEHSLGESAAQGAAGVVLWVSWENTRTKESCQAIKEYMDTTLGPFILNVTSGALLCSQALCSGHGRCVRRTSHPKALLLLNPASFSIQLTPGGGPLSLRGALSLEDQAQMAVEFKCRCYPGWQAPWCERKSMW
# notes: Two Fab arms to FAP and a hyaluronidase arm
# B2: Multispecific molecule 26 (other)
# heavy: QVQLVQSGAEVKKPGASVKVSCKTSRYTFTEYTIHWVRQAPGQRLEWIGGINPNNGIPNYNQKFKGRVTITVDTSASTAYMELSSLRSEDTAVYYCARRRIAYGYDEGHAMDYWGQGTLVTVSSASTKGPSVFPLAPSSKSTSGGTAALGCLVKDYFPEPVTVSWNSGALTSGVHTFPAVLQSSGLYSLSSVVTVPSSSLGTQTYICNVNHKPSNTKVDKRV[human IgG1 Fc with changes skipped]
# light: B1 light
# chain: FRGPLLPNRPFTTVWNANTQWCLERHGVDVDVSVFDVVANPGQTFRGPDMTIFYSSQLGTYPYYTPTGEPVFGGLPQNASLIAHLARTFQDILAAIPAPDFSGLAVIDWEAWRPRWAFNWDTKDIYRQRSRALVQAQHPDWPAPQVEAVAQDQFQGAARAWMAGTLQLGRALRPRGLWGFYGFPDCYNYDFLSPNYTGQCPSGIRAQNDQLGWLWGQSRALYPSIYMPAVLEGTGKSQMYVQHRVAEAFRVAVAAGDPNLPVLPYVQIFYDTTNHFLPLDELEHSLGESAAQGAAGVVLWVSWENTRTKESCQAIKEYMDTTLGPFILNVTSGALLCSQALCSGHGRCVRRTSHPKALLLLNPASFSIQLTPGGGPLSLRGALSLEDQAQMAVEFKCRCYPGWQAPWCERKSMWGGGGSGGGGSGGGGSDKTHTCPPCPAPELLGGPSVFLFPPKPKDTLMISRTPEVTCVVVDVSHEDPEVKFNWYVDGVEVHNAKTKPREEQYNSTYRVVSVLTVLHQDWLNGKEYKCKVSNKALPAPIEKTISKAKGQPREPQVCTLPPSREEMTKNQVSLSCAVKGFYPSDIAVEWESNGQPENNYKTTPPVLDSDGSFFLVSKLTVDKSRWQQGNVFSCSVMHEALHNHYTQKSLSLSPGK
# notes: One FAP targeting arm and a hyaluronidase arm
# B3: Multispecific molecule 27 (other)
# heavy 1: EVQLLESGGGLVQPGGSLRLSCAASGFTFSSYIMMWVRQAPGKGLEWVSSIYPSGGITFYADTVKGRFTISRDNSKNTLYLQMNSLRAEDTAVYYCARIKLGTVTTVDYWGQGTLVTVSSASTKGPSVFPLAPSSKSTSGGTAALGCLVKDYFPEPVTVSWNSGALTSGVHTFPAVLQSSGLYSLSSVVTVPSSSLGTQTYICNVNHKPSNTKVDKRV[human IgG1 Fc with changes skipped]
# light 1: QSALTQPASVSGSPGQSITISCTGTSSDVGGYNYVSWYQQHPGKAPKLMIYDVSNRPSGVSNRFSGSKSGNTASLTISGLQAEDEADYYCSSYTSSSTRVFGTGTKVTVLGQPKANPTVTLFPPSSEELQANKATLVCLISDFYPGAVTVAWKADGSPVKAGVETTKPSKQSNNKYAASSYLSLTPEQWKSHRSYSCQVTHEGSTVEKTVAPTECS
# heavy 2: B1 heavy 2
# light 2: B1 light
# notes: PDL1 arm, FAP arm, hyaluronidase arm
# What was measured:
# [1] = target: T1, human FAP (generated from SEQ ID NO: 225) (human, UniProt Q12884 26-760, limits assumed); test: ELISA on plate-bound antigen, molecule titrated 1 uM-1 pM
# T1 construct: Antigen construct made in house; also called hFAP
# T1 sequence (Q12884 other isoform, or with tags, fused parts or gaps limits assumed): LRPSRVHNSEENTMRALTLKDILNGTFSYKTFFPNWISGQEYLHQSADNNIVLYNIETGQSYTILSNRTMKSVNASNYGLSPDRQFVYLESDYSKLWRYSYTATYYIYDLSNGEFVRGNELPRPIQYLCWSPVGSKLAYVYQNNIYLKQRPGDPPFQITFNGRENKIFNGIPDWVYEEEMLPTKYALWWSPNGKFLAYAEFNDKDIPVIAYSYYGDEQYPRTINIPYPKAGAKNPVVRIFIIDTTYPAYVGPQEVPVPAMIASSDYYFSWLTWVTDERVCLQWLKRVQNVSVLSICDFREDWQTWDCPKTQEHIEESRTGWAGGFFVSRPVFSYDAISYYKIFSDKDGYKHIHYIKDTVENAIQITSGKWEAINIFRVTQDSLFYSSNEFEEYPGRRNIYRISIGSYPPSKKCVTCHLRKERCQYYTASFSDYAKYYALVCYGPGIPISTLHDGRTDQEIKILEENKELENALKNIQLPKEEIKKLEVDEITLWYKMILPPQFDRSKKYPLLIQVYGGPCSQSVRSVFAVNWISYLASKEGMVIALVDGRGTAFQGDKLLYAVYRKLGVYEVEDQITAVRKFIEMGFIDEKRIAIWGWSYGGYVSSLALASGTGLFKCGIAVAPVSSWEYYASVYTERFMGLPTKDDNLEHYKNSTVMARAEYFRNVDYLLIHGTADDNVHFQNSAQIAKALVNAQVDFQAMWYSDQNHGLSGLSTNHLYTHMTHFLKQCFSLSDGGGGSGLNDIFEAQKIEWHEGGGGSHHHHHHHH
# [2] = target: T2, human PD1L1 (generated from SEQ ID NO: 178) (human); test: as above
# T2 construct: Antigen construct made in house; also called hPD1L1; human PDL1
Binder,EC50 [1] [nM],EC50 [2] [nM]
B1,144,
B2,18.5,
B3,44,0.052
